# Test results: paper PMC4336329 (PLoS ONE, 2015)
# The whole screen tested about 310,000 compounds, of which about 14,000 (4.5%) showed an effect of 50% or more. Effects have a minus sign here. This is one part of the list.
# Biological target: human ether-à-go-go-related gene (hERG) potassium channel (human, UniProt Q12809)
# Test: primary screen, population patch clamp on CHO cells stably expressing hERG
# 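Note: peak tail current of the secondary pulse compared with the same well before compound.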
# human ether-à-go-go-related gene (hERG) potassium channel, sequence (Q12809 whole entry, looked up): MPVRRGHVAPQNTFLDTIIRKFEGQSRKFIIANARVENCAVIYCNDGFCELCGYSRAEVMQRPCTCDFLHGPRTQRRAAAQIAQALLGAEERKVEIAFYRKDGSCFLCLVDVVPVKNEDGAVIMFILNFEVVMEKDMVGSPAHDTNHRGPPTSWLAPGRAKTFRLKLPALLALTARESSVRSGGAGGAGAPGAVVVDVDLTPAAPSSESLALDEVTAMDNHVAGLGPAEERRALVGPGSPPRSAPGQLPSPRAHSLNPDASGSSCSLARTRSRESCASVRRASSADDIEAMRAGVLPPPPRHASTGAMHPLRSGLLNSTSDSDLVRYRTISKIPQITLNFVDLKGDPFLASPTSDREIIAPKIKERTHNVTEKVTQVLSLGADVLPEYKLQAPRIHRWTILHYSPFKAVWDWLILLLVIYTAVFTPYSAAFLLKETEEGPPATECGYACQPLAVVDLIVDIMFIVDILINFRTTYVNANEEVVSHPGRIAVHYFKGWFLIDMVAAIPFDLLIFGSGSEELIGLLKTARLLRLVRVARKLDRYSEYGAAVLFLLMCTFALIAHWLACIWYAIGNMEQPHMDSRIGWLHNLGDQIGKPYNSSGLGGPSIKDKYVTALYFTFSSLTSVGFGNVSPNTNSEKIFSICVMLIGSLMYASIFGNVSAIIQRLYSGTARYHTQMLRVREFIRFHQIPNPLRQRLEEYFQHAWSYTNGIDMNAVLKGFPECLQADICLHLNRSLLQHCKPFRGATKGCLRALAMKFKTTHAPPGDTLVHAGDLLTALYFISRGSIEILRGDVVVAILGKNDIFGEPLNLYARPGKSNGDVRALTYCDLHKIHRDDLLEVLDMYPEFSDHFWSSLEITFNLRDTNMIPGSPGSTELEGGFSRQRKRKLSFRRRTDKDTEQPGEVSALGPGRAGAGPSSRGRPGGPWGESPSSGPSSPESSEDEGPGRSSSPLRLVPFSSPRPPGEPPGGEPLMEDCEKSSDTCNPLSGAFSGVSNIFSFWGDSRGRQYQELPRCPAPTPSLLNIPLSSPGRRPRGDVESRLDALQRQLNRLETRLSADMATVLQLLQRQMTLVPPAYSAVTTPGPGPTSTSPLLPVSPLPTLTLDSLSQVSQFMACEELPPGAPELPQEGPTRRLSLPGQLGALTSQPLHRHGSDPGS
row,SMILES,"hERG current change (%, negative = inhibition) at 10uM"
1,COc1ccc(NC(=O)C(=O)NCCN2CCN(C(=O)c3ccc(C(C)(C)C)cc3)CC2)cc1,-2.54%
2,Cc1cc(C)n(CC(O)COCc2ccco2)n1 (centres unmarked),-3.37%
3,O=C(COC(=O)CNC(=O)c1ccccc1F)NCCNC(=O)COC(=O)CNC(=O)c1ccccc1F,-1.61%
4,CC(=O)N1c2ccc(S(=O)(=O)NCCc3ccc(S(N)(=O)=O)cc3)cc2CC1C (centres unmarked),13%
5,COc1cccc(-c2nnc(-c3ccc(C(F)(F)F)cc3)o2)c1,7.97%
6,Cn1nc(-c2ccccc2)cc1NC(=O)Nc1ccc(F)cc1,12.7%
7,O=C(COC(=O)c1ccccc1)Nc1cc(S(=O)(=O)N2CCCCCC2)ccc1Cl,7.5%
8,Cc1ccc(S(=O)(=O)Nc2cccc(C(=O)N3CCOCC3)c2)c(C)c1NS(C)(=O)=O,21.9%
9,COc1ccc(Cl)cc1C(=O)O/N=C(\N)c1ccc(Cl)cc1,-22.9%
10,O=C(Nc1ccccc1)OC1CCS(=O)(=O)C1 (centres unmarked),-16.1%
11,CN1/C(=C\C=N\NC(=O)c2ccccc2Br)C(C)(C)c2ccccc21,-13.9%
12,Cc1cc(C)c(C#N)c(SCc2ccc([N+](=O)[O-])cc2)n1,15.9%
13,CC(C)(C)OC(=O)N1CCC[C@H]1c1nnc(SCc2ccccc2)o1,-10.3%
14,CCn1c(SCC(=O)N2CCOCC2)nnc1C(C)NC(=O)c1ccccc1 (centres unmarked),17.7%
15,CN(C)c1ccc(/C=N/n2c(-c3ccccc3Br)n[nH]c2=S)cc1,1%
16,CC(=O)c1c(C)[nH]c(C(=O)OCc2cccc(C)c2)c1C,14.4%
17,CSc1nc(-c2ccccc2)cc(C)c1C#N,-1.51%
18,CCOC(=O)c1ccc(NC(=O)Cn2nnc3ccccc32)cc1,1.73%
19,CCCC1=NN(C(=O)Cc2ccc(OC)c(OC)c2)C(O)(C(F)(F)F)C1 (centres unmarked),0.733%
20,CCCc1nc2c(sc3nc4c(cc32)COC(C)(C)C4)c(=O)n1CCN(CC)CC,-17.8%
21,O=S(=O)(c1cccs1)N1CCN(c2ccc(O)cc2)CC1,-21.8%
22,COc1cc(/C=N/NC(=O)CCC(=O)Nc2ccc(C)cc2)ccc1O,-10.3%
23,Br.Cc1ccc(S(=O)(=O)NN2Cc3ccccc3C2=N)cc1,7.02%

row,SMILES,"hERG current change (%, negative = inhibition) at 10uM"
1,Cc1ccc2[nH]c(=O)c(C(c3nnnn3CCc3ccccc3)N3CCOCC3)cc2c1 (centres unmarked),-10.5%
2,Cn1c(=O)cc(NCCc2ccccc2)[nH]c1=O,-8.48%
3,CCOC(=O)C1CCCN(C(=O)c2ccc3c(c2)OCO3)C1 (centres unmarked),7.81%
4,CCOc1cccc2cc(C(=O)NC(C)c3ccccc3)c(=N)oc12 (centres unmarked),-19.6%
5,CC1=C(C(=O)N2CCCC(N3CCN(c4cccc(Cl)c4)CC3)C2)OCCO1 (centres unmarked),17.6%
6,CCOC(=O)c1ccc(NC(=O)CSc2nnnn2C2CCCCC2)cc1,12.9%
7,COc1ccccc1C1(O)CCN(CC(=O)Nc2nc(-c3ccccc3)cs2)CC1,-56.8%
8,COc1ccc(N(CC(=O)N/N=C/c2cccc3c2OCCO3)S(=O)(=O)c2ccc(NC(C)=O)cc2)cc1,11.4%
9,CCCCOc1ccc(C(=O)NCC(=O)N2CCN(C(=O)c3ccco3)CC2)cc1,-57.4%
10,Cc1cc(NC(=O)CN2C(=O)N(C)C3(CCCCC3)C2=O)ccc1Br,-9.52%
11,CCOc1ccc(Cc2nc(N)nc(N)n2)cc1,-4.83%
12,NC(=O)CN1C(=O)C(O)(CC(=O)/C=C\C=C\c2ccccc2)c2ccccc21 (centres unmarked),1%
13,Cc1ccc(C)c(NC(=O)COC(=O)c2ccc3c(c2)OCCO3)c1,11.2%
14,CCOC(=O)c1c(C)[nH]c(-c2csc(C)n2)c1C,8.32%
15,Cc1ccc(NC(=O)c2cc(-c3cc(C)c(C)cc3O)n[nH]2)cc1C,4.32%
16,CCCS(=O)(=O)c1nc(S(=O)(=O)c2ccc(C)cc2)c(N2CCC3(CC2)OCCO3)s1,-37%
17,CCCC(=O)Nc1c(-c2ccccc2)c(=O)c(C)nn1-c1ccc(C)cc1,2.29%
18,COc1ccc(CNC(=O)C2CCCN(S(=O)(=O)c3c(C)noc3/C=C/N(C)C)C2)cc1 (centres unmarked),10.9%
19,CCCCc1nnc(NC(=O)C(=O)OCC)s1,38.2%
20,COCCNC(=O)c1cccc(OC2CCN(Cc3cccc(C(C)=O)c3)CC2)c1,6.74%
21,Cn1c(CSCCOc2ccccc2)n[nH]c1=S,10.7%
22,CN(C(=O)CSc1nncc2ccccc12)C1CCCCC1,-17.4%
23,OCC[C@@H]1C[C@@H](O)[C@H](O)[C@@]2(CCCCO2)O1,12.8%

row,SMILES,"hERG current change (%, negative = inhibition) at 10uM"
1,c1ccc(-c2nc(NCCCN3CCOCC3)c3ccccc3n2)cc1,-34.6%
2,COc1ccc(/C(=C/Nc2cccc(Br)c2)C(C)=O)cc1OC,-12.9%
3,Cc1noc(N)c1C(=O)Nc1ccc(F)cc1,5.37%
4,O=C(Nc1cccc2ncccc12)c1ccc(Br)c([N+](=O)[O-])c1,8.69%
5,COc1cccc(C(=O)Nc2ncc3c(n2)CC(c2ccc(OC)cc2OC)CC3=O)c1 (centres unmarked),-17.3%
6,Nc1cc(=O)[nH]c(SCC(=O)Nc2ccccc2Sc2ccccc2)n1,6.15%
7,CC(Sc1ccccc1)C(=O)N1CCN(S(=O)(=O)c2ccccc2)CC1 (centres unmarked),-8.83%
8,O=C(Nc1cnc2ccccc2c1)c1ccncc1,2.45%
9,Cc1sc(NC(=O)C2CCCCC2)c(C#N)c1-c1ccccc1,8.24%
10,COc1cc(C)c(Br)cc1S(=O)(=O)NCCCN1CCOCC1,9.66%
11,COc1ccc(N2C(=O)C(Cl)=C(NCc3ccccc3)C2=O)cc1,-5.74%
12,COc1ccc(C(=O)c2c(C)c3cc(C)ccc3n2CC(O)CN2CCOCC2)cc1.Cl (centres unmarked),-32.4%
13,O=C(Nc1cccc(Cl)c1)Nc1cnccn1,29.1%
14,COc1ccc(CN(C)S(=O)(=O)c2nnc(NC(=O)c3ccccc3OC)s2)cc1OC,22%
15,CC(C)(C)NC(=O)CSc1nnc(Cc2ccccc2)n1CC1CCCO1 (centres unmarked),-2.95%
16,O=C(CN1C(=O)NC2(CCCCCC2)C1=O)c1ccc(Cl)s1,6.1%
17,CSc1nc(Sc2ccccc2)c2ccccc2n1,7.04%
18,CCCNC(=O)Nc1cc(OCC)c(N2CCOCC2)cc1OCC,-9.65%
19,COc1cc(CN2CCCC(CCC(=O)NCc3ccc(C)o3)C2)cc2c1OCO2 (centres unmarked),-59.9%
20,Cc1oc(-c2ccc(F)cc2)cc1-c1nn2c(-c3ccoc3C)nnc2s1,17%
21,Cc1ccc(NS(=O)(=O)c2cc(C(=O)N3CCOCC3)ccc2C)cc1,-3.78%
22,Cc1ccc(SCC(=O)Nc2cccc(-c3nnc(-c4ccco4)o3)c2)cc1,-2.67%
23,Cc1ccc(NC(=S)NCc2cccs2)c(C)c1,9.56%

row,SMILES,"hERG current change (%, negative = inhibition) at 10uM"
1,N#CCC(=N)N1CCN(c2ccc(Cl)cc2)CC1,-29%
2,O=C(c1cccc(F)c1F)N1CCCc2ccccc21,8.46%
3,O=C(Oc1cccc2cccnc12)c1ccco1,-10.2%
4,CC1=C(C(=O)N2CCN(C(=O)c3ccco3)CC2)C2(CCC(C)CC2)OC1=O (centres unmarked),-63.8%
5,CCCN(CCC)c1ccc(C(O)c2nnc(-c3ccccc3)o2)cc1 (centres unmarked),-8.96%
6,CCCCn1c(SCC(=O)N(C)C)nnc1-c1ccncc1,-2.16%
7,COc1ccc(Nc2cc3n(c(=O)n2)CCc2cc(OC)c(OC)cc2-3)c(C)c1,9.98%
8,Cn1c(C(=O)NCCN2CCCCCC2)cc2c(=O)n(C)c3ccccc3c21,-13.4%
9,COC(=O)c1c(NC(=O)Cn2nc(C(F)F)cc2C(F)F)sc(C)c1C,14.5%
10,CC(C)N(Cc1nc(-c2ccccc2)no1)C(=O)CSc1ccccc1,-1.38%
11,CC(C)CN(C(=O)c1cccc(Cl)c1)c1c(N)n(CC(C)C)c(=O)[nH]c1=O,11.6%
12,Cc1cc2c(cc1C)NC(c1cccnc1)C1=C(CC(C)(C)CC1=O)N2 (centres unmarked),14.4%
13,CCOc1ccc(/C=N/NC(=O)c2ccc(F)cc2)cc1CN1CC2CC(C1)c1cccc(=O)n1C2 (centres unmarked),-53.3%
14,COc1cc(CNCCO)cc(Br)c1OCc1ccccc1.Cl,-25.4%
15,CCCCC12CN3CCN(CC(C3)/C1=N\NC(=O)c1ccccc1N)C2,-70.8%
16,CCOC(=O)c1cc2c(=O)[nH]ccc2nc1C(F)(F)F,6.85%
17,COc1ccc(CCN2C(=NC(=O)C(C)C)SC3CS(=O)(=O)CC32)cc1 (centres unmarked),-12.4%
18,O=C(CCc1ccccc1)NNC(=S)NCCc1ccccc1,6.95%
19,COc1ccccc1NC(=O)/C=C/c1ccc(OC)c(S(=O)(=O)N2CCOCC2)c1,-17.2%
20,O=C(CC1C(=O)NCCN1Cc1ccc(-c2ccccc2)cc1)NCc1ccccc1 (centres unmarked),0.0315%
